Some of these densities may be calculated back from excess volumes.
Test: xn = mol fraction of the nth substance listed
Conditions: 101 kPa

CCCC[n+]1ccn(C)c1.F[B-](F)(F)F + O
mass density [kg/m3]
Conditions	293.15 K	298.15 K	303.15 K	308.15 K	313.15 K	318.15 K	323.15 K
x2 = 0.0964	–	–	–	1186.7	1183.1	–	1176
x2 = 0.2639	1192.4	–	1185.1	1181.5	1177.9	–	1170.7
x2 = 0.3901	1186.7	–	1179.4	1175.8	1172.1	–	1164.9
x2 = 0.5121	1179.2	1175.6	1171.7	1168.1	1164.4	1160.8	1157
x2 = 0.6369	1168	1164.2	1160.5	–	1153.1	–	1145.6
x2 = 0.7002	1159.9	–	1152.4	–	1144.9	1141.2	1137.4
x2 = 0.7456	1152.5	1148.7	1145	–	1137.5	1133.7	1130
x2 = 0.7866	1144.7	1139.4	1137.5	1133.6	1129.8	1126	1122.4
x2 = 0.8493	–	–	1120.7	1117	–	1109.6	–
x2 = 0.9	1106.3	–	–	1096.1	–	–	–
x2 = 0.9252	1090.4	1087.3	–	1080.9	1077.6	1074.2	1070.8
x2 = 0.9496	1070.6	–	1065	1062	1059	1055.8	–
x2 = 0.9744	1043.1	1040.9	1038.6	1036.1	–	1030.8	–

From a compilation of properties of binary mixtures (doi:10.1007/s10953-014-0137-8)
